Source: the supplement of paper PMC12217912
The list shows a part of the results. The full chains were built here from the parent and the listed change. Inactive controls read about 0.05.

B1: TEV protease; numbered along this chain (parent)
chain: MGESLFKGPRDYNPISSSICHLTNESDGHTTSLYGIGFGPFIITNKHLFRRNNGTLVVQSLHGVFKVKDTTTLQQHLVDGRDMIIIRMPKDFPPFPQKLKFREPQREERICLVTTNFQTKSMSSMVSDTSCTFPSGDGIFWKHWIQTKDGQCGSPLVSTRDGFIVGIHSASNFTNTNNYFTSVPKNFMELLTNQEAQQWVSGWRLNADSVLWGGHKVFMVKPEEPFQPVKEATQL

Variants of: B1
Assay: raw area under fraction-flipped curve 0-4 h after induction (AUC4h, not background-subtracted), DNA-recorder readout of cleavage of the substrate (dimensionless); higher = more cleavage of the substrate by the protease variant
Conditions: temperature: 34 °C; time window: 0-4 h after rhamnose induction
Description: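 In vivo DNA recorder in E. coli TOP10(DE3) ΔrhaA at 34 °C. Each TEVp single-site mutant (parent TEVp 0) is paired with a single-site variant of the 7-mer TEVs (canonical ENLYFQ|S). The substrate sits between flexible linkers in a Bxb1-sfGFP-TEVs-SsrA fusion, so cleavage stabilises Bxb1 and speeds flipping of a recombination array, read by NGS. The value is the raw area under the fraction-flipped curve over 0-4 h after rhamnose induction (AUC4h), with ≥20 reads per time point. It is not background-subtracted; inactive controls average about 0.047.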
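Note: Bxb1 expression induced with 0.2% (w/v) L-rhamnose at OD600 near 0.5, cultures sampled hourly, flipped fraction per protease–substrate barcode pair counted by paired-end Illumina sequencing.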

Row | Variant | area with substrate EALYFQS | area with substrate ECLYFQS | area with substrate EDLYFQS | area with substrate EELYFQS | area with substrate EFLYFQS | area with substrate EILYFQS | area with substrate EQLYFQS | area with substrate ERLYFQS | area with substrate ESLYFQS | area with substrate EVLYFQS | area with substrate EWLYFQS | area with substrate EYLYFQS | area with substrate EGLYFQS | area with substrate EHLYFQS | area with substrate EKLYFQS | area with substrate ELLYFQS | area with substrate EMLYFQS | area with substrate EPLYFQS | area with substrate ETLYFQS
1 | MGESLFKGPRDYNPISSSICHLTNESDGHTTALYGIGFGPFIITNKHLFRRNNGTLVVQSLHGVFKVKDTTTLQQHLVDGRDMIIIRMPKDFPPFPQKLKFREPQREERICLVTTNFQTKSMSSMVSDTSCTFPSGDGIFWKHWIQTKDGQCGSPLVSTRDGFIVGIHSASNFTNTNNYFTSVPKNFMELLTNQEAQQWVSGWRLNADSVLWGGHKVFMVKPEEPFQPVKEATQL [S32A] | 0.113 | 0.0866 | 0.111 | 0.113 | 0.0966 | 0.0808 | 0.122 | 0.118 | 0.107 | 0.0931 | 0.0846 | 0.0978 | – | – | – | – | – | – | –
2 | MGESLFKGPRDYNPISSSICHLTNESDGHTTELYGIGFGPFIITNKHLFRRNNGTLVVQSLHGVFKVKDTTTLQQHLVDGRDMIIIRMPKDFPPFPQKLKFREPQREERICLVTTNFQTKSMSSMVSDTSCTFPSGDGIFWKHWIQTKDGQCGSPLVSTRDGFIVGIHSASNFTNTNNYFTSVPKNFMELLTNQEAQQWVSGWRLNADSVLWGGHKVFMVKPEEPFQPVKEATQL [S32E] | 0.0796 | 0.0763 | 0.0963 | 0.103 | 0.104 | 0.0745 | 0.0907 | 0.0838 | 0.0892 | 0.103 | 0.0726 | 0.105 | 0.0955 | 0.101 | 0.0913 | 0.071 | 0.0772 | 0.102 | 0.111
3 | MGESLFKGPRDYNPISSSICHLTNESDGHTTGLYGIGFGPFIITNKHLFRRNNGTLVVQSLHGVFKVKDTTTLQQHLVDGRDMIIIRMPKDFPPFPQKLKFREPQREERICLVTTNFQTKSMSSMVSDTSCTFPSGDGIFWKHWIQTKDGQCGSPLVSTRDGFIVGIHSASNFTNTNNYFTSVPKNFMELLTNQEAQQWVSGWRLNADSVLWGGHKVFMVKPEEPFQPVKEATQL [S32G] | 0.106 | 0.0982 | 0.113 | 0.109 | 0.0852 | 0.0777 | 0.0959 | 0.0945 | 0.0897 | 0.0827 | 0.0884 | – | – | 0.0916 | – | 0.0777 | 0.113 | 0.117 | –
4 | MGESLFKGPRDYNPISSSICHLTNESDGHTTLLYGIGFGPFIITNKHLFRRNNGTLVVQSLHGVFKVKDTTTLQQHLVDGRDMIIIRMPKDFPPFPQKLKFREPQREERICLVTTNFQTKSMSSMVSDTSCTFPSGDGIFWKHWIQTKDGQCGSPLVSTRDGFIVGIHSASNFTNTNNYFTSVPKNFMELLTNQEAQQWVSGWRLNADSVLWGGHKVFMVKPEEPFQPVKEATQL [S32L] | 0.0797 | 0.0972 | – | 0.115 | 0.0845 | 0.0919 | 0.119 | 0.107 | 0.114 | 0.0974 | 0.0911 | – | – | 0.0719 | 0.0933 | – | 0.112 | 0.13 | 0.11
5 | MGESLFKGPRDYNPISSSICHLTNESDGHTTMLYGIGFGPFIITNKHLFRRNNGTLVVQSLHGVFKVKDTTTLQQHLVDGRDMIIIRMPKDFPPFPQKLKFREPQREERICLVTTNFQTKSMSSMVSDTSCTFPSGDGIFWKHWIQTKDGQCGSPLVSTRDGFIVGIHSASNFTNTNNYFTSVPKNFMELLTNQEAQQWVSGWRLNADSVLWGGHKVFMVKPEEPFQPVKEATQL [S32M] | 0.215 | 0.141 | 0.145 | – | – | 0.0872 | 0.135 | 0.141 | 0.157 | 0.099 | – | – | – | 0.0968 | – | – | – | 0.143 | –
6 | MGESLFKGPRDYNPISSSICHLTNESDGHTTPLYGIGFGPFIITNKHLFRRNNGTLVVQSLHGVFKVKDTTTLQQHLVDGRDMIIIRMPKDFPPFPQKLKFREPQREERICLVTTNFQTKSMSSMVSDTSCTFPSGDGIFWKHWIQTKDGQCGSPLVSTRDGFIVGIHSASNFTNTNNYFTSVPKNFMELLTNQEAQQWVSGWRLNADSVLWGGHKVFMVKPEEPFQPVKEATQL [S32P] | 0.0668 | 0.0608 | 0.0547 | – | 0.068 | 0.0408 | – | 0.0578 | 0.0607 | 0.0575 | 0.0632 | – | – | 0.0613 | 0.0651 | 0.0516 | – | 0.0648 | 0.0629
7 | MGESLFKGPRDYNPISSSICHLTNESDGHTTQLYGIGFGPFIITNKHLFRRNNGTLVVQSLHGVFKVKDTTTLQQHLVDGRDMIIIRMPKDFPPFPQKLKFREPQREERICLVTTNFQTKSMSSMVSDTSCTFPSGDGIFWKHWIQTKDGQCGSPLVSTRDGFIVGIHSASNFTNTNNYFTSVPKNFMELLTNQEAQQWVSGWRLNADSVLWGGHKVFMVKPEEPFQPVKEATQL [S32Q] | 0.124 | 0.132 | 0.135 | 0.119 | – | – | 0.11 | 0.117 | – | 0.114 | – | – | – | – | 0.108 | 0.0802 | 0.121 | 0.141 | –
8 | MGESLFKGPRDYNPISSSICHLTNESDGHTTRLYGIGFGPFIITNKHLFRRNNGTLVVQSLHGVFKVKDTTTLQQHLVDGRDMIIIRMPKDFPPFPQKLKFREPQREERICLVTTNFQTKSMSSMVSDTSCTFPSGDGIFWKHWIQTKDGQCGSPLVSTRDGFIVGIHSASNFTNTNNYFTSVPKNFMELLTNQEAQQWVSGWRLNADSVLWGGHKVFMVKPEEPFQPVKEATQL [S32R] | 0.133 | 0.0988 | 0.132 | 0.117 | – | 0.0997 | 0.111 | 0.108 | 0.091 | 0.118 | – | 0.069 | – | 0.0806 | 0.104 | 0.104 | 0.115 | 0.123 | 0.127
9 | MGESLFKGPRDYNPISSSICHLTNESDGHTTSNYGIGFGPFIITNKHLFRRNNGTLVVQSLHGVFKVKDTTTLQQHLVDGRDMIIIRMPKDFPPFPQKLKFREPQREERICLVTTNFQTKSMSSMVSDTSCTFPSGDGIFWKHWIQTKDGQCGSPLVSTRDGFIVGIHSASNFTNTNNYFTSVPKNFMELLTNQEAQQWVSGWRLNADSVLWGGHKVFMVKPEEPFQPVKEATQL [L33N] | 0.0888 | 0.0987 | 0.112 | 0.104 | 0.0998 | – | 0.113 | 0.0945 | 0.0994 | 0.102 | 0.0882 | – | 0.0848 | 0.133 | 0.124 | 0.0933 | 0.13 | 0.0934 | 0.135
